Source: PubChem BioAssay AID1745853 (National Center for Advancing Translational Sciences (NCATS), 2022)
This is one part of the list. Further columns of the screen follow, without active or inactive calls.

Key:
Experiment in all cases: Primary Screen for Target Class Profiling of Small Molecule Inhibitors of Methyltransferases
[1] = target: Glycine N-methyltransferase (Homo sapiens) (UniProt Q14749); settings: purified enzyme, MTase-Glo SAH luminescence; measured here: GNMT inhibition; at 40 µM; stronger effect = lower value
Summary of the method: (§1)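 Each enzyme was reacted with SAM and its substrate, with compounds tested once at 40 uM; SAH formed was read by MTase-Glo luminescence.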

[2] = target: Guanidinoacetate N-methyltransferase (Homo sapiens) (UniProt Q14353); settings: purified enzyme, MTase-Glo SAH luminescence; measured here: GAMT inhibition; at 40 µM; stronger effect = lower value
Summary of the method: as §1

[3] = target: Histamine N-methyltransferase (Homo sapiens) (UniProt P50135); settings: purified enzyme, MTase-Glo SAH luminescence; measured here: HNMT inhibition; at 40 µM; stronger effect = lower value
Summary of the method: as §1

[4] = target: Nicotinamide N-methyltransferase (Homo sapiens) (UniProt P40261); settings: purified enzyme, MTase-Glo SAH luminescence; measured here: NNMT inhibition; at 40 µM; stronger effect = lower value
Summary of the method: as §1

[5] = target: Phenylethanolamine N-methyltransferase (Homo sapiens) (UniProt P11086); settings: purified enzyme, MTase-Glo SAH luminescence; measured here: PNMT inhibition; at 40 µM; stronger effect = lower value
Summary of the method: as §1
On the % scale 0 is the no-effect control and ±100 the full control effect.

| Structure (SMILES) | activity change, negative = inhibition [1] [%] | activity change, negative = inhibition [2] [%] | activity change, negative = inhibition [3] [%] | activity change, negative = inhibition [4] [%] | activity change, negative = inhibition [5] [%] |
| --- | --- | --- | --- | --- | --- |
| CC1CCCCC1NC(=O)C1(C)Cn2c(cc3occc32)C(=O)N1Cc1cccc(Cl)c1 (stereo not given) | -9.69 | 5.39 | -5.32 | -9.7 | -4.56 |
| C=C(C)[C@@H]1CC=C(COC(=O)NC(=O)c2ncn3c(=O)n(C)nnc23)CC1 | -10.4 | -24.8 | -5.2 | -39.9 | -15.3 |
| CCCn1c(=O)c2ccc(C(=O)NCC(C)C)cc2n2c(SCC(=O)c3ccc(C)cc3)nnc12 | 6.75 | 0.799 | 8.2 | 5.52 | 3.23 |
| Cc1ccc(C)c(N2CCN(CCN3C(=O)c4ccc(-c5ccco5)n4CC3(C)C(=O)NC3CCCCCC3)CC2)c1 (stereo not given) | -9.6 | 0.92 | -10.7 | -9.7 | -6.23 |
| Cc1ccc(NC(=O)N2CCn3cccc3C2Cc2ccccc2)c(C)c1 (stereo not given) | -1.39 | 0.894 | -2.13 | -3.16 | -5.1 |
| COc1cc2c(cc1CN1CCn3nc(C(O)CO)cc3C1)OCCO2 (stereo not given) | -3.34 | -0.445 | -0.527 | -11.2 | -15.7 |
| O=C1[C@H]2CN(Cc3cccc(Cl)c3F)C[C@H]2C(=O)N1Cc1ccc2c(c1)OCO2 | -9.19 | -11.3 | -4.39 | -16.3 | -13.5 |
| CC1CCN(S(=O)(=O)c2ccc3c(ccn3CC(=O)NCc3ccco3)c2)CC1 | 2.01 | 6 | 6.94 | 4.77 | 4.25 |
| CC(C)c1ccc(CN2CC(CNC(=O)c3cnn(C)c3)C3(C2)CN(c2ccccc2)C3)cc1 (stereo not given) | -6.59 | -3.75 | -1.23 | -12 | -6.63 |
| C[S+](=O)([O-])N1CC2(CCCCN2Cc2ccc(Cl)cc2)Cc2ccccc21 (stereo not given) | 0.873 | -6.51 | 0.233 | -1.06 | -2.06 |
| COc1ccc(C(=O)N2CCC23Cc2ccccc2NC3=O)cc1 (stereo not given) | -0.811 | -0.442 | 2 | -1.35 | -1.88 |
| CC1(C(=O)NC2CCCCC2)Cn2c(c(-n3cccc3)c3ccccc32)C(=O)N1Cc1cccnc1 (stereo not given) | 0.805 | 0 | 3.91 | -4.96 | 1.31 |
| CNCc1cn(C[C@H]2O[C@@H](CC(=O)NCc3ccc(F)cc3)[C@H](O)[C@@H]2O)nn1 | -7.77 | -8.85 | -4.93 | -11.7 | -9.47 |
| COCCC1(NS(=O)(=O)N(C)C)CCN(S(C)(=O)=O)CC1 | -1.79 | 0.653 | 0.894 | -1.44 | -0.981 |
| Cc1cc(C)cc(N2C(=O)c3cc4ccccc4n3CC2(C)C(=O)NCCC(C)C)c1 (stereo not given) | 2.67 | 0.769 | 5.07 | 0.913 | 0.612 |
| CCNC(=O)NC1(CCOC)CCN(C(=O)c2ccoc2)CC1 | -4.79 | -7.57 | -1.41 | -11.5 | -1.85 |
| Cc1ccsc1CN1CCC2(CC1)Cc1ccccc1CNC2=O | -8.53 | -9.41 | -4.19 | -13.3 | -3.24 |
| CCOC(=O)C(Cc1c[nH]c2ccccc12)NC(=O)c1ccccc1Br (stereo not given) | -1.76 | 0 | 9.23 | 8.54 | 2.76 |
| CC1(C(=O)NC2CCCC2)COc2c(oc3ccccc23)C(=O)N1Cc1cccc(Br)c1 (stereo not given) | 2.71 | 0.941 | 6.38 | 4.19 | 4.66 |
| COc1ccccc1C(=O)N1CCCCCC1CN1CCc2ccccc2C1 (stereo not given) | -15 | -10.1 | -13.6 | -5.16 | -14.6 |
| C[C@H]1CC(=O)Nc2cccc(-c3cnn(C(C)(C)C)c3)c2N1 | -2.11 | -1.77 | 7.48 | -12.4 | 2.54 |
| Cc1ccc(-c2cccc(CN3CCCC(c4nc5ccc(C)cc5c(=O)[nH]4)C3)c2)c(C)c1 (stereo not given) | -4.98 | -6.31 | -6.52 | -13.5 | -7.15 |
| C=C1C(=O)O[C@@H]2[C@H]1[C@H](O)C[C@]1(C)[C@@H](O)CC=C(C)[C@@H]21 | 7.06 | 5.63 | 11.3 | -4.85 | 8.65 |
| COC(=O)c1ncn2c1C(=O)N(Cc1ccc(C)cc1)C(C)(C(=O)NCCCOC(C)C)C2 (stereo not given) | -5.71 | 0 | 5.39 | 2.83 | 3.26 |
| CCCn1c(=O)c2ccc(C(=O)NC(C)CC)cc2n2c(=O)n(CC(=O)N(C)c3ccccc3)nc12 (stereo not given) | 2.49 | 3.9 | 7.54 | -0.73 | 3.14 |
| Cc1ccccc1Cn1nc2n(CC(C)C)c(=O)c3ccc(C(=O)NC(C)C)cc3n2c1=O | 1.28 | -1.23 | 1.84 | -3.06 | -1.44 |
| CC[C@@H]1Cc2cc(O)ccc2C2=C1c1ccc(O)cc1C[C@H]2CC | -38.3 | -21.4 | -39.6 | -22.2 | -18.8 |
| CCc1ccc(-c2cc3n(n2)CC(C)(C(=O)NC2CCCCC2)N(Cc2ccccc2)C3=O)cc1 (stereo not given) | 5.6 | 3.97 | 5.39 | 8.1 | 0.819 |
| CC(=O)O[C@H]1[C@H](Oc2ccccc2COC(=O)C2(O)C=CCCC2=O)O[C@H](CO)[C@@H](O)[C@@H]1O (stereo not given in full) | 4.21 | 4.08 | 4.34 | -8.18 | 0.072 |
| CCOC(=O)c1cc2n(n1)CC(C)(C(=O)NCCCOC)N(c1cc(C)cc(C)c1)C2=O (stereo not given) | 5.77 | 0 | 6.5 | 5.35 | 4.66 |
